# Reference: PMC4336329 (PLoS ONE, 2015)
# The campaign covered roughly 310,000 compounds. About 14,000 (4.5%) showed an effect of 50% or more. Effects have a minus sign here. This is one part of the list.
# Target: human ether-à-go-go-related gene (hERG) potassium channel (human, UniProt Q12809)
# Assay: primary screen, population patch clamp on CHO cells stably expressing hERG
# 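Also: peak tail current of the secondary pulse compared with the same well before compound.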
# Chain of human ether-à-go-go-related gene (hERG) potassium channel (Q12809 whole entry, looked up): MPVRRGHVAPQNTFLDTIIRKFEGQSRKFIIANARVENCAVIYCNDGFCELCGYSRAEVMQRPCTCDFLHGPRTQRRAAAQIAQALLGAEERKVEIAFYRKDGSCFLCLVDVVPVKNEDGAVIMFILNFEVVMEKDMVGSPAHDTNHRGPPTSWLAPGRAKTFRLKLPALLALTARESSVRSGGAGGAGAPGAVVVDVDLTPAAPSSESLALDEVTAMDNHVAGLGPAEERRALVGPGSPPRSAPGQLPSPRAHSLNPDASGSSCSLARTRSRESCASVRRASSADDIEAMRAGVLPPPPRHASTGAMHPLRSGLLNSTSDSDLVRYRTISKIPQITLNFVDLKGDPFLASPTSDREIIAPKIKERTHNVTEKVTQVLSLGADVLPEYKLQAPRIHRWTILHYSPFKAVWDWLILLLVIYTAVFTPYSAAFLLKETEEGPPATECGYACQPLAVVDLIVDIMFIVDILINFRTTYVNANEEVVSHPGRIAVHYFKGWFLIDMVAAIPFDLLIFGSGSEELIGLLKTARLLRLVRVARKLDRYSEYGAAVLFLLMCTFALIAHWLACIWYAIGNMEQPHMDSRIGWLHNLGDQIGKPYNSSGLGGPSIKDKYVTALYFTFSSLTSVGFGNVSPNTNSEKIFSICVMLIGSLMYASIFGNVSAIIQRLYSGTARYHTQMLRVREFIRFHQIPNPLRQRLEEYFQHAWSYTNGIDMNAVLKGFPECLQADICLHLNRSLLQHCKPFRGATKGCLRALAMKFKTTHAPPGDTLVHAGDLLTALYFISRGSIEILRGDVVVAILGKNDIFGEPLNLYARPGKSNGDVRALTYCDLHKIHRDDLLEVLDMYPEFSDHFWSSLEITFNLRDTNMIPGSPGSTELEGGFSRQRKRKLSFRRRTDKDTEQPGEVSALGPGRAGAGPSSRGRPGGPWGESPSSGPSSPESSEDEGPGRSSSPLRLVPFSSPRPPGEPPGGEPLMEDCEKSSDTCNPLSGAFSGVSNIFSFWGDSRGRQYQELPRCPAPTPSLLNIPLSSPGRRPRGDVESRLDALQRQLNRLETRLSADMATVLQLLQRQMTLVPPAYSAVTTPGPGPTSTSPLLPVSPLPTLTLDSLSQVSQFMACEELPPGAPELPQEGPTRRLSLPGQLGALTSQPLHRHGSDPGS
row,Structure (SMILES),"hERG current change (%, negative = inhibition) at 10uM"
1,O=C(CSc1nnc(COc2ccc(Cl)cc2)o1)N1CCCCC1,-35.4%
2,Cc1nn(-c2ccccc2)c(NC(=O)c2cccs2)c(-c2ccc(Cl)cc2)c1=O,12.7%
3,CCCCOC(=O)c1ccc(NC(C)=O)cc1,-11.2%
4,COc1ccc(-n2c(COc3ccccc3)nnc2SCc2ccc(C#N)cc2)cc1,-39.4%
5,O=c1ccn([C@H]2C[C@H](O)[C@@H](CO)O2)c(=O)[nH]1,-6.1%
6,Cc1cccc(C)c1NC(=O)CCCSc1nnc(-c2ccco2)o1,-24.5%
7,CCOC(=O)C1=C(C)NC(C)=C(C(=O)OCC)C1/C=C/c1ccccc1OC,-2.55%
8,CCCC1CC(C(=O)Nc2ccccc2)C(=O)O1 (centres unmarked),14.2%
9,Cc1ccc(Cl)cc1N1CCN(C(=O)C(C)n2ncn3cccc3c2=O)CC1 (centres unmarked),-11.5%
10,C=CCn1c(-c2cccc(OCC)c2)n[nH]c1=S,8.03%
11,CC(=O)c1sc2nc(SCC(=O)NCCc3ccccc3)[nH]c(=O)c2c1C,10.5%
12,COc1ccc2cc(C(c3nnnn3Cc3ccccc3)N3CCCCCC3)c(=O)[nH]c2c1 (centres unmarked),-17.6%
13,CCOC(=O)c1coc(CNC(=O)c2c(C)oc3c2CCCC3)c1,-7.01%
14,Cc1ccc(CN2CCN(CC(=O)N/N=C/c3c[nH]c4ccccc34)CC2)cc1,-36.3%
15,CCOC(=O)C1CCN(C2CCN(C(=O)c3oc4c(F)cccc4c3C)CC2)CC1,-71.1%
16,COc1ccccc1C1CC(=O)Nc2cc(C)c(C)cc21 (centres unmarked),14%
17,COc1ccc(NC(=O)C(NC(=O)CC2NC(=O)NC2=O)c2ccccc2)cc1 (centres unmarked),-2.49%
18,COc1ccc(CNC(=O)C2CCN(S(=O)(=O)c3ccc(Br)s3)CC2)cc1,-3.03%
19,CCOc1cc(NC(=S)NCCOC)c(OCC)cc1NC(=O)c1ccco1,1.36%

row,Structure (SMILES),"hERG current change (%, negative = inhibition) at 10uM"
1,COC(=O)c1[nH]c2ccccc2c1NC(=O)CN1CCN(c2cccc(OC)c2)C(C)C1 (centres unmarked),-7.52%
2,O=C(CBr)Nc1c2c(nn1-c1ccccc1)CSC2,17.4%
3,O=C1C(=O)N(Cc2cccc([N+](=O)[O-])c2)c2ccccc21,-13.9%
4,NNC(=O)c1ccc(COc2cccc3ccccc23)o1,8.08%
5,Cc1ccccc1C1C2=C(Nc3[nH]n(-c4ccccc4)c(=O)c31)c1ccccc1C2=O (centres unmarked),-1.84%
6,CCc1nnc(N/N=C/c2c(F)cccc2Cl)n1N,7.54%
7,CCc1ccc(/C=C2\Oc3c(ccc(O)c3CN3CCN(C)CC3)C2=O)cc1,-0.96%
8,Cc1ccc(C(CC(=O)N2CCCCC2)c2ccccc2)c(O)c1C (centres unmarked),-22.1%
9,CCCn1c(N)c(C(=O)CSc2nnc(Cc3cccs3)n2C2CC2)c(=O)n(C)c1=O,-0.534%
10,O=C(COC(=O)c1cccnc1)c1ccc(Cl)c(Cl)c1,1.54%
11,O=S(=O)(c1cccs1)N1CCN(c2ccccn2)CC1,-12.6%
12,O=C(CCN1CCN(c2ccccc2)CC1)NNC(=S)Nc1ccccc1,-22.3%
13,COc1ccc(C(C(=O)NC(C)(C)C)N(Cc2cccnc2)C(=O)CCC(=O)Nc2cc(C)on2)cc1 (centres unmarked),10.9%
14,CCC(=O)N/C(N)=N/c1nc2ccccc2o1,-10.3%
15,COc1ccc2nc(NC(=O)c3cccc(OCc4c(C)noc4C)c3)sc2c1,-9.95%
16,COc1ccc(OC)c(NC(=O)C2CCCC2)c1,-22.3%
17,CC1CC(C)CN(S(=O)(=O)c2cc3c(cc2Cl)NC(=O)CO3)C1 (centres unmarked),-9.87%
18,O=C1NC(=S)NC(=O)C1=Cc1ccc(Br)s1,21.2%
19,O=C(CCc1ccccc1)Nc1c(F)cccc1F,-3.59%

row,Structure (SMILES),"hERG current change (%, negative = inhibition) at 10uM"
1,Cc1ccc(OCCCC(=O)Nc2ccc(S(=O)(=O)N3CCOCC3)cc2)cc1,-25.7%
2,O=S(=O)(Nc1cccc(CCc2ccccn2)c1)c1ccc(Cl)cc1,2.37%
3,CCCn1cc(CN2CCCC(C(=O)c3ccc4c(c3)OCO4)C2)c(C)n1 (centres unmarked),-55.4%
4,CC(=O)N1CCc2ccc(NC(=O)c3c(-c4c(Cl)cccc4Cl)noc3C)cc21,7.21%
5,CCCN1CC=C2C(C#N)=C(N)C(C#N)(C#N)C(c3cccc(OC)c3OC)C2C1 (centres unmarked),-4.54%
6,CN1CCN(C(=O)c2ccc(S(=O)(=O)c3ccc(Br)cc3)cc2)CC1,-37.3%
7,CSc1nnc(SCC2=NNC(=O)SC2)s1,10.1%
8,COc1ccccc1CNC(=O)c1cccc(C)c1[N+](=O)[O-],-3.33%
9,Cc1ccc(S(=O)(=O)Nc2ccc3c(c2)nc(CCN2CCN(c4ccccn4)CC2)n3C)cc1,-84.6%
10,CSc1ccc(CN(C)CC(=O)NCc2ccc(F)cc2)cc1,-70.1%
11,COc1cc(C(=O)NC2=C(C#N)CCC2)cc(OC)c1OC,9.66%
12,CCOc1ccc(N2C(=O)CC(N3CCN(c4ccccc4F)CC3)C2=O)cc1 (centres unmarked),6.59%
13,CCCNC(=O)COC(=O)c1ccc(Cl)c(S(=O)(=O)N2CCCC2)c1,-10.7%
14,CCn1ccnc1[C@@H]1C[C@H]2CN(Cc3ccccc3OC)C(=O)[C@]23CCCN13,21.9%
15,Cc1cc([N+](=O)[O-])ccc1NC(=O)CSc1nccc(=O)[nH]1,18.7%
16,NS(=O)(=O)c1ccc(N=Nc2c(O)[nH]c3ccc(Br)cc23)cc1,18.3%
17,COc1cc(C(=S)N2CCOCC2)cc(OC)c1OC(=O)c1cccc(C)c1,-8.37%
18,CCS(=O)(=O)c1nc(S(=O)(=O)c2ccc(C)cc2)c(N2CCC(O)CC2)s1,1.7%
